Data published in patent publication US11149300B1, “Methods of treating gastrointestinal malignancies” (Cedars-Sinai Medical Center, priority 2018, dated 2021).

How the values were obtained:
PARP = conditions: read-out: EC50, inhibition of H2O2-induced poly(ADP-ribosyl)ation; C-41 cervical carcinoma cells; cited from earlier work
major human CYPs = conditions: in vitro; cited from earlier work
[1] = cited from earlier work
C-41 cells = conditions: AlamarBlue cell survival; cited from earlier work
MiaPaCa-2 = experiment: radiosensitization in vitro (PAR Western/ELISA, clonogenic dose enhancement, caspase 3/7)
hERG [2] = molecular target: T1, hERG (Homo sapiens, UniProt Q12809); conditions: read-out: IC50, hERG current; cited from earlier work
[3] = cited from earlier work; remark: listed apart in the source
[4] = cited from earlier work; remark: listed apart in the source
tumor models = conditions: cited from earlier work
[5] = cited from earlier work; remark: listed apart in the source
[6] = Phase I VelGemRad trial, MTD, DLT and safety
[7] = cited from earlier work; remark: listed apart in the source
[8] = projection and simulation of human PK and QTc
[9] = 300 mg/kg IP, day 1; cited from earlier work
[10] = tested on: refractory solid tumors and lymphomas; conditions: cited from earlier work
[11] = rat, 5 μM; cited from earlier work
gastrointestinal transit = format: in vivo; conditions: 100 mg/kg
[12] = cited from earlier work; remark: listed apart in the source
human H1 = human H1 (Homo sapiens, UniProt P35367); conditions: 10 μM (2.4 μg/mL); cited from earlier work
[13] = in vitro action potential duration (repolarization); conditions: at 0.42 μg/mL
[14] = tested on: human H1, human 5-HT1A and human 5-HT7 sites; conditions: range over the three sites; cited from earlier work
[15] = cited from earlier work; remark: listed apart in the source
[16] = with topotecan 0.6 mg/m^2/d; cited from earlier work
[17] = human, 5 μM; cited from earlier work
[18] = monkey, 5 μM; cited from earlier work
[19] = physiological pH; cited from earlier work
[20] = mouse, 5 μM; cited from earlier work
[21] = repeated dose (2-week) toxicology study; conditions: Cmax 0.21 μg/mL
ferret emesis model = format: in vivo
hERG [22] = molecular target: T1, hERG; experiment: hERG current block
[23] = parenteral, with cytotoxic therapy

T1 sequence (Q12809 whole entry): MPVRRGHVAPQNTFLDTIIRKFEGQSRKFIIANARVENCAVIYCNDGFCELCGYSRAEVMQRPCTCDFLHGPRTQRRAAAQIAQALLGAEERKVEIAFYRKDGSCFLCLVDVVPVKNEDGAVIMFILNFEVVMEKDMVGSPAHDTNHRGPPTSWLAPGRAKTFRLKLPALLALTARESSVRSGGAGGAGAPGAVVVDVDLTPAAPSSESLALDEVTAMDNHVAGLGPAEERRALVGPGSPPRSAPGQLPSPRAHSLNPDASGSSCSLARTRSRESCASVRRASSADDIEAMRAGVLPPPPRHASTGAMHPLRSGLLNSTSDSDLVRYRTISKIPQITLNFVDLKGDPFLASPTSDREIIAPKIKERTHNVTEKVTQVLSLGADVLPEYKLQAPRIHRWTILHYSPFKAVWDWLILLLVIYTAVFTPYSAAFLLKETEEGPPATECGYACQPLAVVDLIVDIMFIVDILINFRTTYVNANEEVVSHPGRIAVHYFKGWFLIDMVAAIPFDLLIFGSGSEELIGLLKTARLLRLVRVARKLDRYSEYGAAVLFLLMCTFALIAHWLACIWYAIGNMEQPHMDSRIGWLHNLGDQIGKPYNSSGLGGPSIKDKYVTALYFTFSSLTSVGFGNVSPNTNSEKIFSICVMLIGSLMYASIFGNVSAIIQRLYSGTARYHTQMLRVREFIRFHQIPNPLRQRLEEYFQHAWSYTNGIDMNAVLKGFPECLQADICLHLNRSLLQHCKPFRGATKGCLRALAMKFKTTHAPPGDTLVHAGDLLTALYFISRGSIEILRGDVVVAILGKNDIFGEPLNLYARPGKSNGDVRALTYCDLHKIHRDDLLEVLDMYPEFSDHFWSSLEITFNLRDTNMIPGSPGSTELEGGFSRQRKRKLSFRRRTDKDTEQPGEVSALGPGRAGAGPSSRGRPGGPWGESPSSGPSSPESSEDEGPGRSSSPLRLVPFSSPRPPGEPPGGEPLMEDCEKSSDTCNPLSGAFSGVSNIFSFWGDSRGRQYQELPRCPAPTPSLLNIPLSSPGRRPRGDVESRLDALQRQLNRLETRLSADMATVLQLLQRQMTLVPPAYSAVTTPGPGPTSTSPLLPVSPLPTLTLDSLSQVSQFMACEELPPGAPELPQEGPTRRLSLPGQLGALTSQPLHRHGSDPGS
UniProt P35367, sequence (P35367 whole entry): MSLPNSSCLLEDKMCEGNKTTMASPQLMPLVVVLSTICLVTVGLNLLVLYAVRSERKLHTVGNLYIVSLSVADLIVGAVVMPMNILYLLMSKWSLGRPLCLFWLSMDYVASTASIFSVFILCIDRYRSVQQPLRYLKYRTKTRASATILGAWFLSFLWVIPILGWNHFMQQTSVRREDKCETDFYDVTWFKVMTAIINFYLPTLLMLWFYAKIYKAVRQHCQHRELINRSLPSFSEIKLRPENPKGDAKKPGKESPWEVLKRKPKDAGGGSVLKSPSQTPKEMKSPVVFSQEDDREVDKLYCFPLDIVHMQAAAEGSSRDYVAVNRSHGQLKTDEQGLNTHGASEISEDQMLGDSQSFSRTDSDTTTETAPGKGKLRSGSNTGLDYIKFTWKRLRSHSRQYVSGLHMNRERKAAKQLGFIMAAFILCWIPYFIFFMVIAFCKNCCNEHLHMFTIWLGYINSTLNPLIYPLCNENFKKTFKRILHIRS

For `C[C@]1(c2nc3c(C(N)=O)cccc3[nH]2)CCCN1` [veliparib], the EC50 (PARP) is listed as 0.0024 µM, the “inhibition of major human CYPs” value (major human CYPs) is listed as “not a potent inhibitor” and the “effect on repolarization (action potential duration)” value ([1]; 0.42 μg/mL) is listed as “no effect”. The “prolongation of action potential duration” value ([1]; 4.22±0.02 μg/mL) was 4.8%, the “prolongation of action potential duration” value ([1]; 39.49±0.70 μg/mL) was 18.6% and the “maximal potentiation of temozolomide cytotoxicity” value (C-41 cells) was “approximately 15 fold”. For the same molecule, the cytotoxicity alone (MiaPaCa-2) was “minimal cytotoxicity”, the “radiation-induced caspase 3/7 activity” value (MiaPaCa-2) was “significantly enhanced” and the dose enhancement factor (MiaPaCa-2; 5 Gy and 1 uM) was 1.29. For the same molecule, the dose enhancement factor (MiaPaCa-2; 5 Gy and 10 uM) was 1.41, the dose enhancement factor (MiaPaCa-2; 5 Gy and 100 uM) was 2.36 and the “radiation-induced upregulation of PAR protein” value (MiaPaCa-2; co-treatment with irradiation) was “abrogated”. For the same molecule, the phospho-ATM levels (MiaPaCa-2; irradiation plus veliparib relative to either alone) was “upregulation”, the IC50 (hERG [2]) was 236 µM and the “bioavailability from a non-formulated capsule” value ([3]; fasted dogs) was 59.7%. For the same molecule, the “bioavailability from a non-formulated capsule” value ([3]; non-fasted dogs) was 65.5%, the mean plasma concentration ([4]; 100 mg/kg) was 1630 ± 140 ng/mL and the “effect on gastrointestinal transit” value ([4]; up to 100 mg/kg) was “no significant effect”. The “toxicity at supratherapeutic dose” value (tumor models; 50 mg/kg/day via osmotic minipump) was “skin toxicity at the pump implantation site”, the “dose giving significant potentiation” value (tumor models; PO, divided twice daily) was 3.1 mg/kg/day and the “dose of maximal potentiation” value (tumor models; PO) was “approximately 25 mg/kg/day”. The “AUC at maximally efficacious Css” value (tumor models; continuous infusion) was 1700 ng·h/mL, the “Css (plasma concentration at steady-state) that was maximally efficacious” value (tumor models; continuous infusion) was 70 ng/mL and the “time plasma concentration above 70 ng/mL” value (tumor models; oral 25 mg/kg/day, divided twice daily) was 2-4 hours per dose. For the same molecule, the “toxicity at efficacious doses” value (tumor models; parenteral or PO, up to maximally efficacious doses) was “No increased toxicity”, the “dose of maximal efficacy” value (tumor models; [23]) was “approximately 12.5 mg/kg/day” and the “lowest dose with significant efficacy” value (tumor models; [23]) was 1 mg/kg/day. For the same molecule, the emesis ([5]; 10 mg/kg gavage) was “No emesis”, the mean plasma concentration ([5]; 10 mg/kg gavage) was 3800 ± 110 ng/mL and the emesis ([5]; 20 mg/kg gavage) was “significant emesis”. For the same molecule, the mean plasma concentration ([5]; 20 mg/kg gavage) was 6610 ± 260 ng/mL, the “DLT lymphopenia, share of patients with DLT” value ([6]; 12 patients with DLT) was 83.3% and the “DLT neutropenia, febrile neutropenia, abdominal infection, abdominal pain, hyponatremia, leukopenia, share each” value ([6]; 12 patients with DLT) was 8.3%. For the same molecule, the DLTs identified ([6]; 30 evaluable patients) was 16, the “DLTs: abdominal infection” value ([6]; count) was 1 and the “DLTs: abdominal pain” value ([6]; count) was 1. The “DLTs: febrile neutropenia” value ([6]; count) was 1, the “DLTs: hyponatremia” value ([6]; count) was 1 and the “DLTs: leukopenia” value ([6]; count) was 1. For the same molecule, the “DLTs: lymphopenia” value ([6]; count) was 10, the “DLTs: neutropenia” value ([6]; count) was 1 and the “maximum tolerated dose (MTD)” value ([6]; with gemcitabine 400 mg/m^2 and RT 36 Gy/15) was 40 mg BID. The “most frequent grade >/=3 AEs” value ([6]; with gemcitabine and IMRT) was “lymphocyte count decreased, hyperglycemia, and anemia”, the “tolerability of the combination” value ([6]; with gemcitabine and IMRT) was “well tolerated” and the GI toxicities ([6]; with gemcitabine and RT) was “No significant GI toxicities”. The “oral bioavailability (F)” value ([7]; all species) was > 50%, the “volume of distribution (Vss)” value ([7]; all species) was > 2.0 L/kg and the “terminal elimination t1/2” value ([7]; range over species) was 1.2 to 2.7 h. For the same molecule, the “predicted clinical Cmax” value [8] was 210 ng/mL, the “predicted human t1/2” value [8] was ~4 h and the “projected human CL” value ([8]; allometric scaling) was 26 L/h. For the same molecule, the “predicted QTc prolongation in humans” value ([8]; anticipated dose 50 mg twice daily) was “less than 3 msec”, the “animals with tonic-clonic seizures/death” value [9] was “approximately 50%” and the MTD ([10]; combined with 50 mg QD cyclophosphamide) was 60 mg QD. The tolerability ([10]; with metronomic cyclophosphamide) was “well tolerated”, the “protein binding in plasma, % bound” value [11] was 49% and the “multiple of predicted clinical Cmax” value (gastrointestinal transit) was 7 fold. The route of clearance ([12]; rats and dogs) was “cleared primarily in the urine as intact parent drug”, the “dose (total radioactivity) recovered” value ([12]; within 24 hours post-dose) was > 80% and the “displacement of control-specific binding” value (human H1) was 61%. The “multiple of predicted clinical Cmax” value [13] was 2 fold, the IC50 [14] was 1.2 to 5.3 µM and the CNS effects ([15]; 100 mg/kg PO) was “mild sedation-like effects”. For the same molecule, the CNS effects ([15]; 300 mg/kg PO) was “moderate to marked CNS effects”, the CNS effects ([15]; 3-30 mg/kg PO) was “did not display clear adverse CNS effects” and the MTD [16] was 10 mg BID. For the same molecule, the “protein binding in plasma, % bound” value [17] was 51%, the “protein binding in plasma, % bound” value [18] was 41% and the solubility [19] was “high”. For the same molecule, the “protein binding in plasma, % bound” value [20] was 43%, the “survival at 30 days” value (pancreatic tumors; single dose of veliparib) was 63% and the “survival at 60 days” value (pancreatic tumors; single dose of veliparib) was 0%. The tumor growth inhibition (pancreatic tumors; single dose of veliparib) was 8 days, the “survival at 30 days” value (pancreatic tumors; veliparib plus radiotherapy) was 100% and the “survival at 60 days” value (pancreatic tumors; veliparib plus radiotherapy) was 29%. The tumor growth inhibition (pancreatic tumors; veliparib plus radiotherapy) was 39 days, the “multiple of predicted clinical Cmax, dogs with seizures” value [21] was 26 fold and the “multiple of predicted Cmax” value (ferret emesis model; 10 mg/kg, no emesis) was 18 fold. The “multiple of predicted Cmax at which emesis was seen” value (ferret emesis model; 20 mg/kg) was 31 fold and the “hERG IC50 as multiple of predicted clinical Cmax” value (hERG [22]) was 278 fold.

Where two headings read alike, the source gives them in different places.
